The full ranking holds about 110,000 compounds; the median of “z-score” is about -0.1, and the highest 2% start at about 2. The list shows a part of the results. Active and inactive are the calls of the source.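 The calls were made as follows: active = z-score in the third read window above 3 or below -3; inactive = the rest.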
target: Metabotropic glutamate receptor 8 (Rattus norvegicus) (UniProt P70579); test: rat mGluR8 modulators via GIRK flux, primary screen, cell-based, thallium flux, HTS (AID 488969); details: HEK293 rat mGluR8, GIRK (G protein-gated inwardly rectifying potassium channel) thallium flux, FluoZin2; at 10 µM; stronger effect = higher value; submaximal glutamate (EC20) added with thallium
Chain of UniProt P70579 (P70579 whole entry, looked up): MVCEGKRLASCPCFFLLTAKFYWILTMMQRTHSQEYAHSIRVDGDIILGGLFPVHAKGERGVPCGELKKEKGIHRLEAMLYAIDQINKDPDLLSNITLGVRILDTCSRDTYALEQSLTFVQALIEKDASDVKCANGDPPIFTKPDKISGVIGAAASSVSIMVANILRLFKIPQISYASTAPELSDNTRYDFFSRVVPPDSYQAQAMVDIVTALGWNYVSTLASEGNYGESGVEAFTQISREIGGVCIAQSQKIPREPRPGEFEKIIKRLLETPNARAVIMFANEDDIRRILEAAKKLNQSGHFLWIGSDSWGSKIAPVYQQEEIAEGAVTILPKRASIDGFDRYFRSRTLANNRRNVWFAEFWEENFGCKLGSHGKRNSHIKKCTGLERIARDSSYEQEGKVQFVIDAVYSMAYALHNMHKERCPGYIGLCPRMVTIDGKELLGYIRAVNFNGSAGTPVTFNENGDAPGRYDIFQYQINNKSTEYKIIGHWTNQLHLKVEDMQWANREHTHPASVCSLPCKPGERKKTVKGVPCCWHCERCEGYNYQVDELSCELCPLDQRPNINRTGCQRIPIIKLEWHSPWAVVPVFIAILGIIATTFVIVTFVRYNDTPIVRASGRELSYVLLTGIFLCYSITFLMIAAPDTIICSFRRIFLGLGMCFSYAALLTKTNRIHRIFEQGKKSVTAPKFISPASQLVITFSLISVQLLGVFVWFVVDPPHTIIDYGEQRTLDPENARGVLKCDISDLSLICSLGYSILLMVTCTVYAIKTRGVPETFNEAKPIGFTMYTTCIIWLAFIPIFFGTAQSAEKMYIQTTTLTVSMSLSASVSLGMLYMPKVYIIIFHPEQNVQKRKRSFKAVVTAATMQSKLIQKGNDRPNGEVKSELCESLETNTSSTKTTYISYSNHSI

Going from `CCOc1ccccc1OCCCOc1ccc(C)cc1Cl` to `C=CCOc1ccc(/C=N/NC(=O)C(C)Sc2ccccn2)cc1OCC` (centres undefined), the z-score falls from -0.147 to -0.807.

Compared with `CS(=O)(=O)c1ccc2nc(NC(=O)c3cccs3)sc2c1`, `CCN(CC)S(=O)(=O)c1ccc(C)c(NC(=O)/C=C/c2cccs2)c1` is lower in z-score: 0.482 for the first, -0.507 for the second.

Going from `NC(=O)C1CCN(C2CC(=O)N(c3cccc(F)c3)C2=O)CC1` (centres undefined) to `CC(=O)Nc1ccc(S(=O)(=O)N2CCC(NC(C)=O)(c3cccc(F)c3)CC2)cc1`, the z-score falls from 0.0654 to -0.024.

Compared with `CCOC(=O)C1CCN(C(=O)CC(NS(=O)(=O)c2ccc(OC)cc2)C(C)C)CC1` (centres undefined), `CCOC(=O)C1CCCN(C(=O)Nc2ccccc2)C1` (centres undefined) is higher in z-score: -1.41 for the first, -0.0608 for the second.

Compared with `CC(C)C(=O)NCCc1nc2ccccc2n1CCOc1ccccc1`, `COC(=O)c1ccccc1COn1c(=O)c[n+]([O-])c2ccccc21` is higher in z-score: -0.149 for the first, 0.644 for the second.

First: COC(=O)C1=C(C(=O)OC)SC(=C2C(=S)C(C)(C)N(C(=O)C(C)C)c3ccccc32)S1
Second: CCC(C)NC(=O)C1c2ccccc2C(=O)N1Cc1cc(OC)ccc1OC (centres undefined)
The z-score of the first is higher: 0.293 for the first, -0.88 for the second.

First: O=C(CN(Cc1ccccc1)S(=O)(=O)c1ccccc1)NC1CC1
Second: CC(=O)Nc1ccc(S(=O)(=O)N(Cc2ccccc2)C(C)C)cc1
The z-score of the first is higher: 0.0708 for the first, -0.457 for the second.

Going from `COc1cc(OC)cc(C(=O)Nn2cc(C(=O)N3CCN(C)CC3)c3ccccc3c2=O)c1` to `CCOc1ccc(NC(=O)CNC(=O)c2cn(-c3ccccc3OC)c(=O)c3ccccc23)cc1`, the z-score falls from 0.52 to -0.0758.

Going from `Cc1cc(C)c(C(=O)/C=C/C=C/c2ccccc2)c(=O)[nH]1` to `Cc1ccc2c(C(=O)CSc3ccccc3)c(C)[nH]c2c1`, the z-score falls from -0.044 to -0.175.

First: COc1cccc2cc(C(=O)Nc3cccnc3N3CCOCC3)c(=O)oc12
Second: C/C(=C1/SC(N2CCOCC2)=NC1=O)c1ccc(Br)cc1
The z-score of the first is lower: -0.322 for the first, 0.0234 for the second.

Compared with `Nc1nn(S(=O)(=O)c2cccc3nsnc23)cc1-c1ccc(Br)cc1`, `O=C1c2ccccc2C(=O)N1c1nc2nccc(-c3ccccc3)n2n1` is higher in z-score: -0.429 for the first, 0.406 for the second.

Compared with `CSc1ccccc1NC(=O)CN(C)CC(=O)Nc1cc(C)ccc1C`, `COC(=O)c1[nH]c2ccc(C)cc2c1NC(=O)CN1CCCc2ccccc21` is higher in z-score: -0.299 for the first, -0.0122 for the second.

Compared with `O=C(Nc1nc(-c2ccco2)cs1)c1ccccc1`, `CCC(=O)N(CCC(c1ccccc1)c1ccco1)Cc1cccs1` (centres undefined) is lower in z-score: 0.0664 for the first, -0.184 for the second.

Compared with `Cc1ccc(S(=O)(=O)C2(C(=O)N(C)C3CCCCC3)CC2)cc1`, `O=C(NC1CCCCCC1)c1ccccc1-c1ccccc1` is lower in z-score: -0.148 for the first, -0.423 for the second.

Compared with `Brc1ccc(-c2cnc3n2CCCC3)cc1`, `CN=C1CC(SC)=C1c1ccc(C)cc1` is higher in z-score: 0.0393 for the first, 0.256 for the second.

Compared with `COc1ccc(CCNC(=O)Cn2nnc(-c3ccccc3F)n2)cc1OC`, `COc1ccc(C(=O)NCc2cn3cccc(C)c3n2)cc1OC` is higher in z-score: 0.148 for the first, 0.16 for the second.

First: O=C(O)CC(c1cccc(Cl)c1)n1cccc1 (centres undefined)
Second: Cc1nc(-c2ccccc2)sc1C(=O)CSc1ccc(Cl)cc1
The z-score of the first is lower: -0.123 for the first, 0.134 for the second.

Going from `CCCCN(CC)CCNC(=O)CN(C)S(=O)(=O)c1ccc2c(c1)c(=O)n(C)c(=O)n2C` to `CCN(CC)S(=O)(=O)c1cccc(S(=O)(=O)c2cccc(S(=O)(=O)N(CC)CC)c2)c1`, the z-score rises from 0.104 to 1.61.

First: CC(=O)Oc1c(S(=O)(=O)c2ccc(C)cc2)c(C)nn1-c1ccccc1
Second: Cc1ccc(-n2c(SCC(=O)N/N=C/c3c(C)nn(-c4ccccc4)c3C)nc3ccccc3c2=O)cc1
The z-score of the first is higher: 0.33 for the first, -0.402 for the second.

Going from `CCOC(=O)Cc1csc(NC(=O)c2ccoc2C)n1` to `CCOC(=O)Cc1csc(NC(=O)COc2ccc(OC)cc2)n1`, the z-score rises from -0.104 to 0.0541.

Compared with `COc1ccc(Nc2nc(NCc3ccco3)nc(N/N=C/c3ccc(O)cc3)n2)cc1`, `O=C(N/N=C/c1ccc(OC(=O)c2ccccc2)c([N+](=O)[O-])c1)c1ccc(O)cc1` is lower in z-score: 0.129 for the first, -0.231 for the second.

Going from `O=C(NCCN1CCOCC1)c1ccccc1[N+](=O)[O-]` to `O=C(c1cc(-c2ccc(Cl)cc2Cl)on1)N1CCOCC1`, the z-score falls from 0.69 to -0.321.

Going from `N#Cc1cc2ccc(N3CCOCC3)cc2cc1C#N` to `N#Cc1ccc(COC(=O)c2ccc(N3CCCC3)c([N+](=O)[O-])c2)cc1`, the z-score falls from 0.856 to 0.0161.

Compared with `COc1ccc(OC)c2[nH]c(=O)c(CCNC(=O)c3ccc(Br)o3)cc12`, `COc1ccc(C(=O)NCCC2=CCCCC2)cc1OC` is higher in z-score: -0.34 for the first, -0.214 for the second.

First: CON(c1nc(N(C)C)nc(N(C)C)n1)S(=O)(=O)c1ccccc1Cl
Second: CCOC(=O)c1c(C)[nH]c(C(=O)N/N=C\c2ccccc2Cl)c1C
The z-score of the first is lower: -0.678 for the first, -0.0744 for the second.

First: CC1(C(=O)OCC(=O)N2c3ccccc3Sc3ccccc32)CC1(Cl)Cl (centres undefined)
Second: CC1Cc2ccccc2N1C(=O)COC(=O)Cn1cnc2ccccc2c1=O (centres undefined)
The z-score of the first is higher: -0.219 for the first, -0.55 for the second.

Going from `Cn1cc([N+](=O)[O-])c(C(=O)Nc2ccc3nc(-c4ccccc4)[nH]c3c2)n1` to `Cc1cc(Nc2cccc([N+](=O)[O-])c2)n2c(nc3ccccc32)c1C#N`, the z-score rises from -0.514 to 0.0405.

Going from `COc1ccccc1C(=O)N/C(=C\c1ccc(Br)cc1)C(=O)NCC(=O)O` to `CCOC(=O)C1=C(C)Nc2ccccc2N=C1NC(=O)Cc1ccc(Br)cc1`, the z-score rises from -0.086 to 0.617.

Going from `COc1ccc2cc(/C(C)=N/NC(=O)c3cc(-c4cccnc4)nc4ccccc34)ccc2c1` to `Clc1ccccc1-c1cc(COc2ccc3ccccc3c2)no1`, the z-score rises from -0.25 to 0.574.

First: CCOC(=O)C1=C(c2ccccc2)N=C2SCC(=O)N2C1c1ccc(OC)c(OC)c1 (centres undefined)
Second: COc1ccc(-c2nc(CNS(=O)(=O)c3ccc(OC)c(OC)c3)cs2)cc1
The z-score of the first is higher: -0.362 for the first, -0.711 for the second.

Compared with `OC1CN=C2C=CC=CN2C1` (centres undefined), `CC1(C)CC2CC(C)(CN2C(=O)c2cc(-c3ccccc3O)on2)C1` (centres undefined) is higher in z-score: -0.452 for the first, 0.0947 for the second.

First: C/C=C/Cn1c(Br)nc2c1c(=O)n(C)c(=O)n2C
Second: CCNc1[nH]c(=O)n(C)c(=O)c1N=O
The z-score of the first is higher: 1.47 for the first, -0.0278 for the second.

Compared with `C=CCn1c(SCC(=O)Nc2c(C)n(C)n(-c3ccccc3)c2=O)nc2scc(-c3ccccc3)c2c1=O`, `Cc1nnc(SCC(=O)N/N=C/c2cn(-c3ccccc3)nc2-c2ccc(F)cc2)n1-c1ccccc1` is lower in z-score: -0.769 for the first, -0.987 for the second.

Compared with `Cc1ccc(-n2c([O-])nc(-[n+]3ccccc3)c2C=O)cc1`, `O=C1CC(c2nc3ccccc3[nH]2)CN1Cc1ccccc1` (centres undefined) is lower in z-score: -0.0804 for the first, -1.62 for the second.

Compared with `CCCCOc1[nH]c2nc(-c3ccco3)n(Cc3ccco3)c(=N)c2c1C#N`, `Cc1cccc2cc(-c3nc4c(C)cccn4c3NCc3ccco3)c(=O)[nH]c12` is higher in z-score: -0.772 for the first, -0.347 for the second.

Going from `CCN(CC)C(=O)CSc1nc(N)c2c3c(sc2n1)CC(C)CC3` (centres undefined) to `CC1=CC(C)(C)N(C(=O)CSc2nnc(N)s2)c2c(C)cc(C)cc21`, the z-score falls from 0.425 to 0.0243.

Going from `CCN(CC)S(=O)(=O)c1ccc(N2CCCCC2)c(NC(=O)/C=C/c2ccc(OC)c(OC)c2)c1` to `COc1ccc(/C=N/N=C2/NC(=O)C(CC(=O)O)S2)cc1OCc1ccc(Cl)cc1` (centres undefined), the z-score rises from -0.574 to 0.15.

Going from `Cc1cc(NS(=O)(=O)c2ccc(NC(=O)CCc3ccccc3)cc2)no1` to `NS(=O)(=O)c1ccc(NC(=S)NC(=O)/C=C/c2ccco2)cc1`, the z-score rises from -0.156 to -0.0753.

First: O=C(Nc1c(F)cccc1F)c1cnc(N2CCN(c3ccccn3)CC2)c2ccccc12
Second: CC(Nc1nc(N2CCN(S(C)(=O)=O)CC2)nc2ccccc12)c1ccccc1 (centres undefined)
The z-score of the first is lower: -1.38 for the first, 0.936 for the second.

Going from `CCOC(=O)c1cnc(SC)nc1Oc1cccc(NC(=O)c2ccc(C)cc2)c1` to `CC(=O)NC1=NN(C(C)=O)C(C)(c2ccc3ccccc3c2)S1` (centres undefined), the z-score falls from 0.206 to -0.0871.

Compared with `O=C(CNC(=S)NC(=O)c1cccc([N+](=O)[O-])c1)c1ccccc1`, `O=C(O)c1ccc(Oc2cccc([N+](=O)[O-])c2)cc1C(=O)O` is lower in z-score: 0.411 for the first, 0.0004 for the second.

Compared with `O=C(O)CN(c1ccccc1)C1SC(=O)NC1=O` (centres undefined), `Cn1c(=O)c2c(n(Cc3ccccc3)c1=O)NC(=O)C2CC(=O)O` (centres undefined) is higher in z-score: -0.0565 for the first, 0.127 for the second.

First: COc1ccc(C2=C/C(=C/c3cccnc3)C(=O)O2)cc1OC
Second: Clc1ccc(N/N=C/c2cccnc2)cc1
The z-score of the first is higher: -0.178 for the first, -0.296 for the second.

Going from `COCCn1c(C)cc(C(=O)CSc2cc(C)c3ccccc3n2)c1C` to `O=c1oc2cc(Cl)ccc2n1CSc1nc2ccccc2s1`, the z-score falls from 0.0693 to -0.971.

Going from `CC1(N2CCCCC2)CC2(O)C(=[N+]1[O-])CCC/C2=N\O` (centres undefined) to `CC1CCN(CC(O)COCCC23CC4CC(CC(C4)C2)C3)CC1` (centres undefined), the z-score rises from 1.09 to 1.17.

Going from `CCn1nc(C)c(NC(=O)/C=C/c2cnn(C)c2C)c1C` to `CCCC(=O)Nc1c(C)n[nH]c1C`, the z-score falls from 0.775 to -0.199.

Going from `CCC1=NNc2cccc3c(OC)ccc1c23` to `COc1ccc(C(O)c2nc3ccccc3s2)cc1` (centres undefined), the z-score rises from -0.517 to -0.214.

Going from `CCN(CC)c1ccc(NC(=O)c2ccco2)c(C)c1` to `O=C(/C=C/c1c(Cl)cccc1Cl)NCc1ccco1`, the z-score falls from 0.295 to 0.108.

Going from `O=C(Nc1ccc(Cl)cc1)Nc1nnc(CSCc2ccc(Cl)cc2)s1` to `COc1ccccc1C1CC(c2ccc(Cl)cc2)Nc2ncnn21` (centres undefined), the z-score falls from -0.0388 to -0.498.

First: CN1CCN(CC(=O)Nc2ccc(Cl)cc2Cl)CC1
Second: CS(=O)(=O)N(CC(=O)Nc1ccccc1C(=O)N1CCOCC1)c1ccc2c(c1)OCO2
The z-score of the first is higher: 0.743 for the first, 0.235 for the second.

Compared with `O=[N+]([O-])c1ccccc1-c1ccc(/C=N/n2cnnc2)o1`, `COC(=O)c1ccccc1NC1OC(=O)c2ccccc21` (centres undefined) is higher in z-score: -0.255 for the first, -0.205 for the second.

First: O=C(CN1C(=O)CCS(=O)(=O)c2ccccc21)NCc1ccccc1
Second: CC(=O)c1ccc(Sc2ccccc2)cc1
The z-score of the first is higher: 0.305 for the first, 0.117 for the second.

Going from `Cc1cc(-c2nc3cccnc3s2)ccc1NS(=O)(=O)c1ccc2c(c1)OCCO2` to `CCn1c(C(=O)NC(C)c2ccc3c(c2)OCCO3)cc2sccc21` (centres undefined), the z-score rises from -0.0979 to 1.2.

`O=C(c1ccc2c(c1)OCO2)N1CCN=C1SCc1cccnc1` was tested, and the z-score was -0.333.

For `CCOC(=O)C1=C(CC)Nc2ccccc2N=C1NC(=O)c1ccc(S(=O)(=O)N(C)C)cc1`, the z-score was active: -3.65.
With `S=c1nc[nH]c2c1sc1nc(-c3ccccc3)c3c(c12)CCCC3` the z-score was active: 7.83.
